Paper PMC4336329 (PLoS ONE, 2015)
Out of some 310,000 compounds screened, about 14,000 (4.5%) showed an effect of 50% or more. Effects have a minus sign here. The list shows a part of the results.

biological target: human ether-à-go-go-related gene (hERG) potassium channel (human, UniProt Q12809); assay: primary screen, population patch clamp on CHO cells stably expressing hERG
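Further: peak tail current of the secondary pulse compared with the same well before compound.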

Sequence of human ether-à-go-go-related gene (hERG) potassium channel (Q12809 whole entry, looked up): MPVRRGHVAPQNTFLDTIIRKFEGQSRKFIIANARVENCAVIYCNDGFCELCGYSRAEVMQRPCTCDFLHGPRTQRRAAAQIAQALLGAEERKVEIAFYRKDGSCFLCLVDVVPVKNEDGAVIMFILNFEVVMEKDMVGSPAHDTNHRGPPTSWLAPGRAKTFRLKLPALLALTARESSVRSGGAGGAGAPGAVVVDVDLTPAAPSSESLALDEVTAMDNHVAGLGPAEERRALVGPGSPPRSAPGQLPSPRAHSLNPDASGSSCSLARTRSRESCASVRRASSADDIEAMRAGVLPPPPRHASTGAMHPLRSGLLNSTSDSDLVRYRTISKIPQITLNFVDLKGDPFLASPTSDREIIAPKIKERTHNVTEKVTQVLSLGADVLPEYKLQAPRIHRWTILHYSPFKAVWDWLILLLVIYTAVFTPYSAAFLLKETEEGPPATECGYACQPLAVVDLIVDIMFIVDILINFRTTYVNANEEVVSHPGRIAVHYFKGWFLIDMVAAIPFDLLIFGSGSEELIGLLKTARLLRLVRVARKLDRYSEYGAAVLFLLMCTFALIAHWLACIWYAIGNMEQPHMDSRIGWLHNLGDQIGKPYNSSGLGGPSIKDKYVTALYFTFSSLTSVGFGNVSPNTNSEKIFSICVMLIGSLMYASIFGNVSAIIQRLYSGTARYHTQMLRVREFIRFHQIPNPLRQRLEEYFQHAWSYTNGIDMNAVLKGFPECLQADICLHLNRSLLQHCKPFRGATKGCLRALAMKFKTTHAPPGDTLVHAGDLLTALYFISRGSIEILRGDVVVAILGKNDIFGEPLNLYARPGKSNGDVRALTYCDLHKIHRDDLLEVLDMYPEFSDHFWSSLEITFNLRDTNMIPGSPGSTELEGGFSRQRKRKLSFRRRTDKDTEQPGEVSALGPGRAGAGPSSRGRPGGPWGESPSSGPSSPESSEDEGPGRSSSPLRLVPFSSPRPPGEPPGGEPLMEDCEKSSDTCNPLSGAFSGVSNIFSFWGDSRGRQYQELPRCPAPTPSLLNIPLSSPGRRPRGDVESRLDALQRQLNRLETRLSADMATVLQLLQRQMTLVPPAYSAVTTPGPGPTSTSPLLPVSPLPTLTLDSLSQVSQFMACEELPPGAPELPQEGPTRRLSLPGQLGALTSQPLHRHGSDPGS

Row | Structure (SMILES) | hERG current change (%, negative = inhibition) at 10uM [%]
1 | CCN(c1ccccc1)S(=O)(=O)c1ccc(OC)c(NC(=O)C2CC2)c1 | -37.6
2 | BrC(=C\c1ccccc1)/C=N/N1CCN(c2ccccc2)CC1 | 12.7
3 | O=C(c1cc(COc2ccc(F)cc2F)on1)N1C[C@H]2CC[C@H]1C2 | 1.98
4 | CCO.COc1ccc(CNc2nc3ccccc3n2Cc2ccc(Cl)cc2)cc1OC | -16.2
5 | Cn1nnnc1SCCNCc1ccccc1OCc1ccccc1 | -9.36
6 | CCOC(=O)CNC(=O)c1cc(-c2ccc3c(c2)OCCO3)oc1C | -13.4
7 | O=C1/C(=C/c2cccnc2)CCc2c1[nH]c1ccccc21 | -15.4
8 | O=C(Nc1ccc(-n2cnnn2)cc1)C1CCC1 | 11.3
9 | Cc1cc2cc(CN3C(=O)c4ccccc4C3=O)ccc2n1C | 15.6
10 | O=C(COc1ccc(/C=N/NC(=O)c2cccnc2)cc1)Nc1ccccc1 | 8.67
11 | CC1CC(C)CN(C(=O)COC(=O)c2c[nH]c3ccccc23)C1 (stereo not drawn) | -18.3
12 | O=C(CC1CCCCC1)N1CCC(c2nc(-c3ccc(S(=O)(=O)N4CCCC4)cc3)no2)CC1 | -9.47
13 | COc1ccc(CC(=O)N/N=C/c2c(C)n(C)c3ccccc23)cc1OC | -0.309
14 | CN(C)/C=C/C(=O)c1ccccc1 | 1.07
15 | Cc1cccc(NC(=O)c2cccc(C(=O)Nc3cccc(C)c3C)n2)c1C | 15.1
16 | COc1ccc(COCC(O)CN2CCC(C(N)=O)CC2)cc1OC (stereo not drawn) | -7.47
17 | Cn1c(C(=O)NCCCN2CCN(c3cccc(Cl)c3)CC2)cc2c(=O)n(C)c3ccccc3c21 | 9.13
18 | COc1ccc(OC)c(C(C)NC(=O)Nc2cccc(C(C)=O)c2)c1 (stereo not drawn) | 8.24
19 | Cc1ccc(/C=c2\sc3nc(-c4ccco4)nn3c2=O)o1 | -0.405
20 | CCOC(=O)c1cnc2cc(-c3ccc(Br)cc3)nn2c1C | 21.4
21 | CCC(C)c1ccc(NC(=O)C2CCN(c3ccc(C(F)(F)F)cn3)CC2)cc1 (stereo not drawn) | 3.66
22 | O=C(CC1CCCC1)Nc1cc(C(F)(F)F)ccc1-n1cncn1 | -10.4
23 | O=C1Nc2ccccc2N=C(c2ccccc2)C1N1CCOCC1 (stereo not drawn) | 12.7

Row | Structure (SMILES) | hERG current change (%, negative = inhibition) at 10uM [%]
24 | CCCCNCCOCCOc1ccc(F)cc1 | 1.2
25 | Cc1ccc(OCC(=O)Nc2ccc(S(=O)(=O)N3CCN(C)CC3)cc2)cc1 | -6.8
26 | O=C1c2ccccc2NC(c2cccc(O)c2)N1Cc1ccco1 (stereo not drawn) | -14.5
27 | CC(C)CNC(=S)NNC(=O)c1ccccc1OC(F)F | -0.213
28 | COc1ccc(NC(=O)Nc2ccc3[nH]ccc3c2)cc1 | 14.1
29 | c1nc(N2CCN(Cc3ccc4c(c3)OCO4)CC2)c2[nH]cnc2n1 | -13.3
30 | CCN(CC)CCSc1nc2ccc(OC)cc2[nH]1.Cl | -64.7
31 | CCc1nc(N2CCN(C(=O)c3ccccc3)CC2)c(C#N)c2c1COC(C)(C)C2 | -46.5
32 | NC(=O)c1sc2cc(C(F)(F)F)cnc2c1-c1cccs1 | 3.94
33 | O=C(NN=C1CCCC1)c1cc(Br)ccc1O | -1.78
34 | O=C(c1ccc(C(F)(F)F)cc1)C1CCCN(C(=O)CCc2cnccn2)C1 (stereo not drawn) | -15.1
35 | O=C(CN1C(=O)C2C3c4ccccc4C(c4ccccc43)C2C1=O)N1CCOCC1 (stereo not drawn) | -16.6
36 | CS(=O)(=O)N1CCC(C(=O)Nc2cc(Cl)cc(Cl)c2)CC1 | 4.85
37 | CCOC(=O)c1nc(C)n(-c2cc(Cl)ccc2Cl)n1 | 1.64
38 | CCC1C(=O)NCCN1Cc1nc(-c2ccc(C)s2)oc1C (stereo not drawn) | 27.9
39 | FC(F)(F)c1cccc(-n2c(Cn3nnc4ccccc43)n[nH]c2=S)c1 | 18.3
40 | COc1ccc(-n2c(SCCC(=O)O)nnc2-c2ccncc2)cc1 | 2.34
41 | Cc1ccc([N+](=O)[O-])cc1-c1ccc(/C=C(\C#N)c2[nH]nc(N)c2C#N)o1 | 12.1
42 | CCCn1ccnc1SC(C)C(=O)Nc1c(C)n(C)n(-c2ccccc2)c1=O (stereo not drawn) | 16.9
43 | O=C(OCCc1cc2ccccc2c(=O)o1)c1ccc(F)cc1 | 3.89
44 | CC(=O)Nc1nc(C)nc(C)c1C(C)=O | 13.8
45 | CC(=O)Nc1ccc(NC(=O)COC(=O)c2cc(S(=O)(=O)N(C)C)ccc2N2CCCC2)cc1 | -9.08
46 | C/C(=N/N1CCN(Cc2ccccc2)CC1)c1ccc(Br)cc1 | -19.9

Row | Structure (SMILES) | hERG current change (%, negative = inhibition) at 10uM [%]
47 | CC1CCc2cc(F)ccc2N1S(=O)(=O)c1ccc(Cl)nc1 (stereo not drawn) | 6.3
48 | COc1ccc(OCC(=O)N2CCN(c3cccc(Cl)c3)CC2)cc1 | -29.7
49 | Cc1cccn2c(NCc3ccc4c(c3)OCO4)c(-c3ccc(O)cc3)nc12 | -22.6
50 | CCn1c(SCC(=O)NCc2ccccc2)nnc1-c1c[nH]c2ccccc12 | -25.2
51 | O=C(c1cc2ccccc2cc1O)N1CCCC(C(F)(F)F)C1 (stereo not drawn) | -1.59
52 | Cn1cc(CN2CCCC(C(=O)c3cccs3)C2)c(-c2cccc(Cl)c2)n1 (stereo not drawn) | -39.2
53 | COC(=O)N1C(=O)[C@@](c2ccc(OC)cc2)(C(C)C)N1C(=O)OC | 14.5
54 | CC(Sc1nc2c(c(=O)[nH]1)CCCC2)C(=O)Nc1ccc(S(N)(=O)=O)cc1 (stereo not drawn) | 16.4
55 | CCOc1ccc(OCCN2C(=O)NC(Cc3c[nH]c4ccccc34)C2=O)cc1 (stereo not drawn) | -11.5
56 | Cc1ccc(C)c(N(CC(=O)NC2CCCC2)C(=O)CCC(=O)Nc2nccs2)c1 | -16.8
57 | O=C(O)c1cccc2c1C(=O)c1ccc(-c3ccc(F)cc3F)cc1S2(=O)=O | 13.8
58 | Cc1cc2nc3c(nc2cc1C)C1(C(=O)N(C)C)CCC3(C)C1(C)C (stereo not drawn) | -2.51
59 | O=C(CN1CCCCCCC1)N/N=C/c1ccc(F)cc1F | -43.3
60 | C[C@@H](C(=O)CC(=O)OC(C)(C)C)[C@@H](O)c1c(F)cccc1Cl | 12.2
61 | CCN1CCN(C(=O)C(C)Oc2ccc(S(=O)(=O)N3CCCC3)cc2C(N)=O)CC1 (stereo not drawn) | -27
62 | COc1ccc(CNC(=O)CSc2nnc(-c3ccc(NC(C)=O)cc3)n2C)cc1 | -0.285
63 | CC(NCc1ccc2c(c1)OCO2)C(=O)NC1CCCc2ccccc21.O=C(O)C(=O)O (stereo not drawn) | -22.6
64 | CCOc1ccc(NC(C)=O)cc1N | 9.48
65 | CCC(C)Sc1nc2c(c(=O)[nH]c(=O)n2C)n1Cc1ccccc1Cl (stereo not drawn) | 12
66 | C=CCNC(=O)c1ccccc1NC(=O)COc1ccc(OC)cc1 | 18.4
67 | Cc1cc(C)nc(NC(=O)/C=C/c2cccs2)c1 | -5.84
68 | Cc1cc(C)nc(NC(=O)c2cc3ccccc3o2)n1 | 6.65
69 | CC(=O)N(Cc1cc(=O)[nH]c2ccccc12)c1ccccc1C | 17.1

Row | Structure (SMILES) | hERG current change (%, negative = inhibition) at 10uM [%]
70 | CSc1nc2ccc(NC(=O)c3ccco3)cc2s1 | -34
71 | Cc1cc(C)cc(NC(=O)CN2C(=O)c3ccccc3C2=O)c1 | 13.3
72 | Cc1ccnc2nc(NC(=O)c3ccco3)nn12 | 15.4
73 | On1nnc2c3ccccc3c3ccccc3c21 | 23.9
74 | COc1ccccc1NC(=O)Nc1nc(CC(=O)NCc2c(F)cccc2F)cs1 | 14.5
75 | CCN(CC)CCNC(=O)C1CCC(=O)N1CCc1ccccc1 (stereo not drawn) | 0.312
76 | COc1ccc(Cc2nc3ccc(C(=O)NCCc4ccccn4)cc3o2)cc1OC | -1.86
77 | COc1ccc(NC(=O)C2CCCCN2S(=O)(=O)c2ccc(F)cc2)cc1 (stereo not drawn) | -16.5
78 | O=C(Nc1cc(Sc2nc3ccccc3s2)cc([N+](=O)[O-])c1)c1ccccc1 | 9.36
79 | Cc1ccc2c(c1)c(=O)c(Br)c(C)n2Cc1ccccc1 | 10.1
80 | CCN(CC)CCCNC(=O)C1c2ccccc2C(=O)N(C)C1c1ccc(OC)cc1 (stereo not drawn) | 6.8
81 | CCc1nnc(NC(=O)CCN2C(=O)CCC2=O)s1 | -8.3
82 | COc1cc(C2=NOC(C(=O)N3CCOCC3)C2)cc(OC)c1OC (stereo not drawn) | 15.1
83 | COC(=O)c1ccccc1N=Nc1c(C)n[nH]c1C | 4.65
84 | CC(=O)Nc1ccc(OCc2ccc3c(c2)OCO3)cc1 | 1.79
85 | Nc1ccccc1C(=O)NCCCN1CCOCC1 | 15.6
86 | COC(=O)CNC(=O)CSc1nc2sccc2c(=O)n1-c1ccccc1 | 6.29
87 | O=C(O)C1C2C=CC(C2)C1C(=O)Nc1nccs1 (stereo not drawn) | 15.3
88 | O=C(Nc1ccccc1C(=O)NCCCN1CCOCC1)c1ccc(F)cc1F | 0.91
89 | CCCn1c(=NC(=O)c2c(-c3c(F)cccc3Cl)noc2C)c(C(=O)OCC)cc2c(=O)n3ccccc3nc21 | 5.26
90 | COc1ccc(NC(=S)N(C(C)C)C2CCN(C(C)C)CC2)cc1Cl | 0.307
